From the supplement of paper PMC5919970
Counter-ions that a name gives are not always drawn. Whole data set: some 2,000 compounds, median “fractional viability relative to vehicle” near 0.91, cut for the lowest 2% near 0.045. This is one part of the list.

System: TYKNU
Assay: fractional viability relative to vehicle; TYKNU is a high-grade serous ovarian cancer line; higher = less growth inhibition
Conditions: 72 h
Method in brief: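 TYKNU control cells or lentiCRISPRv2 knockout derivatives were plated at 500 cells per well in duplicate into drug-stamped 384-well plates holding a ~2100-compound library at 2 or 10 μM. Culture was in RPMI 1640 with 10% FBS at 37 °C in 5% CO2, with 72 h of drug treatment. Viability was measured by Cell Titer Glo luminescence, and the averaged duplicate treatment wells were normalised to duplicate control wells at the same plate position.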

[1] = 2uM, genotype: DNM1L knockout (sgDNM1L #1)
[2] = 2uM, genotype: sgCTRLA1 (non-targeting control)
[3] = 10uM, genotype: DNM1L knockout (sgDNM1L #1)
[4] = 10uM, genotype: sgCTRLA1 (non-targeting control)

Structure (SMILES): CC(C)(Cc1ccc2ccccc2c1)NC[C@@H](O)COc1cccc(Cl)c1C#N
- fractional viability [1]: 0.854
- fractional viability [2]: 1.1
- fractional viability [3]: 0.585
- fractional viability [4]: 0.0354

Structure (SMILES): CCN1CCN(C(=O)N[C@@H](C(=O)N[C@@H]2C(=O)N3C(C(=O)O)=C(CSc4nnnn4C)CS[C@H]23)c2ccc(O)cc2)C(=O)C1=O [Cefoperazone]
- fractional viability [1]: 0.916
- fractional viability [2]: 1.1
- fractional viability [3]: 0.775
- fractional viability [4]: 0.991

Structure (SMILES): O=C(c1cn(Cc2cncn2Cc2ccc(Br)cc2)cc1-c1cccc2ccccc12)N1CCOCC1
- fractional viability [1]: 0.241
- fractional viability [2]: 0.344
- fractional viability [3]: 0.248
- fractional viability [4]: 0.224

Structure (SMILES): CN(C)CCOc1ccc(/C(=C(/CCCl)c2ccccc2)c2ccccc2)cc1 [Toremifene Citrate]
- fractional viability [1]: 1.14
- fractional viability [2]: 1.12
- fractional viability [3]: 0.86
- fractional viability [4]: 1.02

Structure (SMILES): Cc1ccc(Cl)c(Nc2ccccc2C(=O)O)c1Cl [Meclofenamate Sodium]
- fractional viability [1]: 0.952
- fractional viability [2]: 1.02
- fractional viability [3]: 0.784
- fractional viability [4]: 0.978

Structure (SMILES): O=C(NCCO[N+](=O)[O-])c1cccnc1 [Nicorandil]
- fractional viability [1]: 0.973
- fractional viability [2]: 1.02
- fractional viability [3]: 0.931
- fractional viability [4]: 0.953

Structure (SMILES): COc1cc(O)c(CC=C(C)C)c(O)c1C(=O)/C=C/c1ccc(O)cc1 [Xanthohumol]
- fractional viability [1]: 0.939
- fractional viability [2]: 0.888
- fractional viability [3]: 0.453
- fractional viability [4]: 0.423

Structure (SMILES): Cc1cc(/N=N/c2ccc(S(=O)(=O)Nc3ccccn3)cc2)c(N)cc1O
- fractional viability [1]: 0.817
- fractional viability [2]: 1.02
- fractional viability [3]: 0.445
- fractional viability [4]: 0.572

Structure (SMILES): COc1ccccc1S(=O)(=O)Nc1ccc2c(c1)CN(C)C(=O)N2
- fractional viability [1]: 0.871
- fractional viability [2]: 0.896
- fractional viability [3]: 0.502
- fractional viability [4]: 0.699

Structure (SMILES): Cc1nnc(NS(=O)(=O)c2ccc(N)cc2)s1 [Sulfamethizole]
- fractional viability [1]: 1.09
- fractional viability [2]: 0.963
- fractional viability [3]: 0.897
- fractional viability [4]: 0.995

Structure (SMILES): FC(F)c1nc2ccccc2n1-c1nc(N2CCOCC2)nc(N2CCOCC2)n1
- fractional viability [1]: 0.749
- fractional viability [2]: 0.873
- fractional viability [3]: 0.406
- fractional viability [4]: 0.437

Structure (SMILES): C[C@@H]1C[C@H]2[C@@H]3CCC4=CC(=O)C=C[C@]4(C)[C@@]3(F)[C@@H](O)C[C@]2(C)[C@@]1(O)C(=O)CO [Dexamethasone (DHAP)]
- fractional viability [1]: 1.07
- fractional viability [2]: 1.13
- fractional viability [3]: 1.03
- fractional viability [4]: 1.1

Structure (SMILES): OC1(c2ccc(Cl)c(C(F)(F)F)c2)CCN(CCCC(c2ccc(F)cc2)c2ccc(F)cc2)CC1 [Penfluridol]
- fractional viability [1]: 0.601
- fractional viability [2]: 0.806
- fractional viability [3]: 0.0479
- fractional viability [4]: 0.065

Structure (SMILES): CC(C)Oc1ccc(C(=O)N[C@H](CNC(=O)CN(C)C)Cc2ccc(-c3cn4cccc([C@H](C)O)c4n3)cc2)cc1Cl
- fractional viability [1]: 0.413
- fractional viability [2]: 0.508
- fractional viability [3]: 0.29
- fractional viability [4]: 0.438

Structure (SMILES): O=C(O)CCCc1ccccc1 [Sodium Phenylbutyrate]
- fractional viability [1]: 0.968
- fractional viability [2]: 1.13
- fractional viability [3]: 0.839
- fractional viability [4]: 1.06

Structure (SMILES): Cc1cnc(NC(=O)C2=C(O)c3ccccc3S(=O)(=O)N2C)s1 [Meloxicam]
- fractional viability [1]: 1.1
- fractional viability [2]: 1.16
- fractional viability [3]: 1.12
- fractional viability [4]: 1.1

Structure (SMILES): CC1(C)O[C@@H]2C[C@H]3[C@@H]4CCC5=CC(=O)C=C[C@]5(C)[C@@]4(F)[C@@H](O)C[C@]3(C)[C@]2(C(=O)CO)O1 [Triamcinolone Acetonide]
- fractional viability [1]: 1.1
- fractional viability [2]: 1.08
- fractional viability [3]: 1.08
- fractional viability [4]: 1.08

Structure (SMILES): CCCCCCCCCCCCCCCC(=O)O[C@@H]1[C@@H](O)[C@@H](O)[C@@H]([C@H](NC(=O)[C@@H]2C[C@@H](CCC)CN2C)[C@H](C)Cl)O[C@@H]1SC [Clindamycin palmitate HCl]
- fractional viability [1]: 1
- fractional viability [2]: 1.05
- fractional viability [3]: 0.716
- fractional viability [4]: 0.938

Structure (SMILES): CNc1cccc(CCOc2ccc3c(c2)CN(CC(F)(F)F)C(=O)[C@H](CC(=O)O)C3)n1
- fractional viability [1]: 0.56
- fractional viability [2]: 0.811
- fractional viability [3]: 0.598
- fractional viability [4]: 0.639

Structure (SMILES): CC(=O)Nc1ncc([N+](=O)[O-])s1 [Nithiamide]
- fractional viability [1]: 1.25
- fractional viability [2]: 1.33
- fractional viability [3]: 0.917
- fractional viability [4]: 1.1

Structure (SMILES): CCOCC(O)COc1ccc(NC(=O)CC[S+](C)C)cc1 (stereo unspecified) [Suplatast Tosylate]
- fractional viability [1]: 1.06
- fractional viability [2]: 1.02
- fractional viability [3]: 0.927
- fractional viability [4]: 0.968

Structure (SMILES): CN1CCN(CCOc2cc(OC3CCOCC3)c3c(Nc4c(Cl)ccc5c4OCO5)ncnc3c2)CC1 [Saracatinib (AZD0530)]
- fractional viability [1]: 0.821
- fractional viability [2]: 0.782
- fractional viability [3]: 0.586
- fractional viability [4]: 0.735

Structure (SMILES): C=CC(=O)Nc1ccc2ncnc(Nc3cccc(Br)c3)c2c1
- fractional viability [1]: 0.927
- fractional viability [2]: 0.921
- fractional viability [3]: 0.248
- fractional viability [4]: 0.317

Structure (SMILES): CCC(=O)c1c(O)cc(O)cc1O [Flopropione]
- fractional viability [1]: 0.894
- fractional viability [2]: 1.08
- fractional viability [3]: 0.772
- fractional viability [4]: 1.08

Structure (SMILES): O=C(/C=C\n1cnc(-c2cc(C(F)(F)F)cc(C(F)(F)F)c2)n1)NNc1ccccn1 [Verdinexor (KPT-335)]
- fractional viability [1]: 0.137
- fractional viability [2]: 0.13
- fractional viability [3]: 0.162
- fractional viability [4]: 0.121

Structure (SMILES): CC1Cc2ccccc2N1NC(=O)c1ccc(Cl)c(S(N)(=O)=O)c1 (stereo unspecified) [Indapamide]
- fractional viability [1]: 0.853
- fractional viability [2]: 1.02
- fractional viability [3]: 0.844
- fractional viability [4]: 0.996

Structure (SMILES): O=c1cc[nH]c(=S)[nH]1 [2-Thiouracil]
- fractional viability [1]: 1.06
- fractional viability [2]: 1.17
- fractional viability [3]: 0.961
- fractional viability [4]: 1.13

Structure (SMILES): Cc1nc(-c2cn3c(n2)-c2ccc(-c4cnn(C(C)(C)C(N)=O)c4)cc2OCC3)n(C(C)C)n1
- fractional viability [1]: 0.856
- fractional viability [2]: 1.28
- fractional viability [3]: 0.86
- fractional viability [4]: 1.16

Structure (SMILES): O=C(/C=C/c1ccc(CN(CCO)CCc2c[nH]c3ccccc23)cc1)NO [LAQ824 (Dacinostat)]
- fractional viability [1]: 0.0782
- fractional viability [2]: 0.125
- fractional viability [3]: 0.0775
- fractional viability [4]: 0.108
